The term % Inhibition denotes the relative decrease from the control value, in per cent.

Each structure is given as a SMILES string. The whole screen tested about 150,000 compounds, of which about 540 (0.36%) showed an effect of 50% or more. The list shows a part of the results.

This experiment relates to Plasmodium falciparum. Kind of experiment: Primary screen in NF54 nanoGlo assay, in single point, at 2uM, 72h; a lower Z score goes with more inhibition. The class given is functional, Erythrocyte. Particulars: timepoint 72 hour.
In the case of `CC(NCc1n[nH]c(C(C)(C)C)n1)C1CCCO1` (stereo not drawn), the “% Inhibition” value was found to be 2% and the Z score is given as -0.33.
The like results for `Cc1nc(COc2nc(C(C)(C)C)no2)no1` were, in that order, 2% and -0.25.
For `OC[C@H]1CCCN1Cc1cccc(OCc2c(F)cccc2Cl)c1`, in that order: -13% and 1.93.
Turning to `COc1cc(C(=O)OCc2ccccn2)cc2c1O[C@@H](C)C2`, the “% Inhibition” value is on record as -6% and the Z score was 0.84.
Consider `O=C(CCN1CCCCC1)N1CCC([C@]2(c3cccnc3)NC(=O)N(Cc3ccsc3)C2=O)CC1`, for which the “% Inhibition” value is -9% and the Z score was 1.28.
As for `COCCN(CC(N)=O)C(=O)Cc1ccccc1Br`, the “% Inhibition” value was -8% and the Z score came to 1.35.
The like results for `Cn1ncc2c(N3C4CCC3CC(O)(Cc3ccc(F)cc3F)C4)ncnc21` (stereo not drawn) were, in that order, 14% and -1.49.
The like results for `CCCCC1CCC(NC(=O)N2CCC[C@H]2C(=O)NC)CC1` (stereo partly drawn) were, in that order, -3% and 0.32.
With `Cc1oc2ncn(CC(C)C)c(=O)c2c1C(=O)N1CCN(C(=O)c2ccco2)CC1`, the “% Inhibition” value is given as 1% and the Z score was -0.11.
In the case of `CCn1nccc1CN(CCO)c1cc(C(F)(F)F)nc(-c2ccncc2)n1`, the “% Inhibition” value came to 7% and the Z score is listed as -1.02.
Consider `Cc1ccc(-n2nc3c(=O)n(CCCC(=O)NCc4cccnc4)nc(C)c3c2C)cc1`, for which the “% Inhibition” value worked out at 15% and the Z score is on record as -1.74.
For `CC[C@H](C)N(Cc1cccc(OS(=O)(=O)c2c(C)cccc2Cl)c1)C(=O)C1CCC1`, in that order: 2% and -0.34.
The like results for `C[C@H](NC(=O)c1[nH]nc2ccccc12)C(=O)Nc1ccsc1` were, in that order, -4% and 0.57.
In the case of `Nc1ccnc(-c2noc(CCCOCc3ccccc3)n2)n1`, the “% Inhibition” value is -7% and the Z score came out at 0.96.
For `Cc1nc(N2CCN(c3ccc(N)nc3)CC2)ccc1C#N`, in that order: 8% and -0.93.
For `CC(C)CC[C@H](C)NS(=O)(=O)CC1CCCCC1`, in that order: -4% and 0.4.
The like results for `CCCc1cncnc1N1CCC[C@@]2(CCC(=O)N(Cc3cccnc3)C2)C1` were, in that order, 0% and -0.01.
Take `COCCc1nc(-c2cc(C#N)cn2C)n([C@H]2CCS(=O)(=O)C2)n1`: the “% Inhibition” value is reported as -3% and the Z score is reported as 0.48.
The like results for `O=C(O)c1ccc(Oc2nccnc2N2CCCCC2)cc1` were, in that order, 35% and -3.95.
The like results for `Cn1c(N2CCC(c3nc4c(s3)CCCC4)CC2)cc(=O)n(C)c1=O` were, in that order, -13% and 1.51.
The like results for `Nc1c(-c2ccc(F)cc2)nsc1C(=O)NC1CCN(Cc2ccccc2)CC1` were, in that order, 40% and -5.16.
Turning to `CN(Cc1cnc(-c2ccccc2)s1)C(=O)Nc1nncs1`, the “% Inhibition” value is on record as -9% and the Z score is 1.12.
The like results for `O=C(O)c1ccc(COc2ccc(CN3CCN4CCC[C@H]4C3)cc2)o1` were, in that order, -14% and 2.71.
The like results for `CCc1nc(-c2c(C)cc(C)nc2NC(=O)c2ccc(F)cc2F)no1` were, in that order, -3% and 0.37.
For `CCc1ccc2ncn(Cc3nnc4n3CCC4)c(=O)c2c1`, in that order: 9% and -1.26.
`Cc1nnsc1CN1CCN(C)[C@]2(CCC(=O)N(CC3CC3)CC2)C1`: the “% Inhibition” value is -4% and the Z score stood at 0.55.
For `CO[C@H](c1cccc(Cl)c1)c1noc(Cn2nc(C(F)(F)F)cc2C)n1`, in that order: -8% and 0.92.
For `CCOc1ccc(Br)cc1NC(=O)NC[C@@H](C)CCO`, in that order: 1% and -0.11.
Regarding `COc1ccc(S(=O)(=O)N2CCC[C@@](F)(C(=O)N3CCOCC3)C2)cc1OC`, the “% Inhibition” value is on record as -18% and the Z score stood at 1.6.
With `C[C@H](O)CN1CC2(CCC1=O)CCN(c1noc(C3CC3)n1)CC2`, the “% Inhibition” value is 1% and the Z score was -0.14.
Regarding `CC(=O)NC1CCC(N[C@@H](C)c2ccc(C)o2)CC1` (stereo partly drawn), the “% Inhibition” value was -24% and the Z score turned out to be 3.24.
The like results for `CCN1CCN(C(=O)c2cc(C(C)C)n3nccc3n2)CC1` were, in that order, 1% and -0.08.
The like results for `Cc1nc(O)c(Br)cc1C(=O)N1CCC[C@H](CCO)CC1` were, in that order, 0% and 0.07.
Turning to `CCCc1cnc(C)nc1N1CCCn2nc([C@@H](O)c3ccnn3C)cc2C1`, the “% Inhibition” value is reported as 10% and the Z score is -1.83.
The like results for `Cc1[nH]c2ccnn2c(=O)c1CC(=O)NCC1(c2ccc(Cl)cc2)CCCC1` were, in that order, 9% and -1.41.
As for `CCCN1CCCN(C(=O)N[C@H]2CCCc3nn(C)cc32)CC1`, the “% Inhibition” value is -7% and the Z score is 0.74.
For `CCCONc1nc(N)nc(N(CC)CC)n1`, in that order: -2% and 0.19.
As for `CC(C)(NS(=O)(=O)C1COC1)c1ccc(Cl)cc1`, the “% Inhibition” value is listed as -4% and the Z score came to 0.42.
For `COc1ccc(/C=C\c2onc(C)c2NC(C)=O)cc1S(=O)(=O)N(C)c1ccc(C)cc1`, in that order: 2% and -0.35.
As for `C=CCN1CC[C@@]2(CCC1=O)CN(C(=O)N(C)c1ccccc1)CCN2C`, the “% Inhibition” value was -7% and the Z score turned out to be 1.09.
The like results for `CCC(=O)NCC(=O)N1CCCCCCNC(=O)C[C@H]1c1ccccc1` were, in that order, -1% and 0.1.
The like results for `CCCNC(=O)c1nc(C)c(C)nc1C(=O)Nc1ccc(C)cc1` were, in that order, -42% and 4.94.
For `Cc1occc1C(=O)NC(c1ccc(F)cc1)[C@H]1C[C@@H](O)C1` (stereo partly drawn), the “% Inhibition” value was 7% and the Z score is on record as -1.07.
Regarding `Cc1sc(C(=O)N(C)C[C@H](O)C2CC2)cc1-c1ccc(F)cc1`, the “% Inhibition” value worked out at 3% and the Z score was -0.53.
For `CNc1ccc(C(=O)NCC2(O)CCC(C)CC2)cn1` (stereo not drawn), in that order: 12% and -1.34.
Turning to `COCCn1c(C(=O)NC(C)(C)C)cc2c(OCc3ccccc3)cccc21`, the “% Inhibition” value is -10% and the Z score was found to be 1.
As to `Cc1cc(C)c([C@H]2CC(=O)Nc3n[nH]cc32)cc1Cn1cncn1`, the “% Inhibition” value is reported as -11% and the Z score is 1.82.
For `C[C@H]1Cc2c(NC(=O)c3ccc(S(=O)(=O)N(C)C)cc3)nn(C)c2NC1=O`, in that order: 7% and -0.96.
Consider `C[C@H]1CN(c2ncccc2Br)CCN1S(C)(=O)=O`, for which the “% Inhibition” value is listed as -6% and the Z score is reported as 0.63.
With `CCCS(=O)(=O)N(C)[C@@H](CC)c1ccccn1`, the “% Inhibition” value was -4% and the Z score worked out at 0.7.
With `COC(=O)c1n[nH]cc1CN1CC[C@@]2(C1)CN(C)C(=O)O2`, the “% Inhibition” value is 2% and the Z score is -0.31.
In the case of `CCn1nc(C(=O)N2CCCCC2)c2c1CC[C@H](O)C2`, the “% Inhibition” value worked out at 10% and the Z score is listed as -1.95.
For `Cc1nnc(-c2cc(C(C)C)n(-c3cccc(C(=O)NC[C@@H](C)c4ccccc4)c3)n2)o1`, in that order: -11% and 1.5.
As to `N#CC1(NC(=O)c2cccc(C(=O)NC3CC3)c2)CCCCC1`, the “% Inhibition” value was -22% and the Z score came to 2.71.

The values are drawn from ChEMBL document CHEMBL4888484, “Replenishing the malaria drug discovery pipeline: Screening and hit evaluation of the MMV Hit Generation Library 1 (HGL1) against asexual blood stage Plasmodium falciparum ,using a nano luciferase reporter read-out” (2022).
